Data reported in PubChem BioAssay AID463173 (ICCB-Longwood Screening Facility, Harvard Medical School, 2010).
About 1,700 (3.3%) of roughly 52,000 compounds were called active. Rule as the data show it: active = survival mostly below about 52% (no sharp cut-off); inactive = mostly above about 56%. This is one part of the list.

Test system: Wild type
Experiment: S. aureus survival, RN4220 and DeltatarO strains – OD600, teichoic acid synthesis inhibitors, primary screen (AID 463173)
Details: S. aureus RN4220 wild type/DeltatarO growth, OD600, 18 h, hits give low values, screened at 18.75 µg/mL (by protocol)

| SMILES | survival |
| --- | --- |
| Cc1nc2nc(CNC(=O)OC(C)(C)C)nn2c(C)c1CCC(=O)NCc1ccccc1Cl | inactive: 82% |
| COc1ccc(CCNC(=O)CCc2c(C)c3ccc(O)c(C)c3oc2=O)cc1 | inactive: 114% |
| CCc1ccc(-n2c(=O)c3sc4ccccc4c3n(CC(=O)NC3CCCC3)c2=O)cc1 | inactive: 82% |
| COc1cc(OC)c(NC(=O)CCc2nc(C3=CCN(Cc4cccc(Cl)c4)CC3)no2)cc1Cl | inactive: 84% |
| CCOC(=O)c1[nH]c2ccccc2c1N=CN(C)C | inactive: 104% |
| Nc1nc(N)c(S(=O)(=O)c2ccccc2)c(Nc2ccccc2)n1 | inactive: 72% |
| COc1cccc(C2C(=O)N(C3CCCCC3)CC(=O)N2CCc2ccc(OC)c(OC)c2)c1 (stereo not drawn) | inactive: 63% |
| O=C1C2C3C=CC(C3)C2C(=O)N1CCCCN1C(=O)C2C3C=CC(C3)C2C1=O (stereo not drawn) | inactive: 101% |
| CCN1CCN(C(C)C(=O)Nc2ncc(C)s2)CC1 (stereo not drawn) | inactive: 98% |
| CCc1ccc2c(c1)c(=O)c(S(=O)(=O)c1ccc(F)cc1)cn2CC(=O)Nc1ccccc1OC | inactive: 87% |
| Cc1ccc(NC(=O)c2oc3ccccc3c2NC(=O)C2CCCCC2)cc1 | active: 4% |
| COc1ccc(-c2cc(C(=O)Oc3ccc(Br)cc3)c3ccccc3n2)cc1 | inactive: 63% |
| CC1(C)CC2=NNC(c3ccccc3)C2CO1 (stereo not drawn) | inactive: 107% |
| CCOC(=O)C1=C(CN(CC)Cc2ccccc2)NC(=O)NC1c1ccc(OC)cc1 (stereo not drawn) | inactive: 65% |
| COC(=O)c1c(-c2ccc(Cl)cc2)noc1N1CCN(c2ccccc2F)CC1 | inactive: 75% |
| CCCCNC(=O)c1ccc2c(c1)NC(=O)C(C(C)C)N2 (stereo not drawn) | inactive: 127% |
| COc1ccc2c(c1)c1c(c(=O)n(-c3ccc(F)c(Cl)c3)c(=O)n1Cc1ccccc1F)n2C | inactive: 78% |
| COc1ccccc1NC(=O)C(=O)c1cc(C)n(-c2cc(C)cc(C)c2)c1C | inactive: 115% |
| N#Cc1c(-n2ncnc2-c2cccc(Cl)c2)sc2c1CCCCC2 | inactive: 58% |
| CCOc1cccc(-c2nc3ccccc3c(=O)o2)c1 | inactive: 62% |

| SMILES | survival |
| --- | --- |
| COc1cccc(C(=O)Nc2nc(-c3nnn(-c4cc(C)ccc4C)c3C)ns2)c1 | inactive: 72% |
| COc1ccc(Cl)cc1NC(=O)C(=O)NCc1ccc(Cl)cc1 | inactive: 145% |
| O=C1CC(c2ccccc2)Cc2[nH]c(=O)c(-c3nc(-c4ccc(Cl)c(Cl)c4)cs3)cc21 (stereo not drawn) | inactive: 69% |
| CC(C)CC(O)(CC(C)C)C(=O)NNc1ccccc1 | inactive: 110% |
| Cc1cc(C)c2oc(C(=O)NCCc3ccc(S(N)(=O)=O)cc3)cc(=O)c2c1 | inactive: 92% |
| CC(C)(C)c1ccc(C(=O)NC2=NC(c3cccc(F)c3)CC(=O)N2)cc1 (stereo not drawn) | inactive: 65% |
| COCCNS(=O)(=O)c1cc(-c2nn3c(C)nnc3c3ccccc23)ccc1C | inactive: 77% |
| Cc1ccc(NC(=O)N2CCN(C(=O)c3nsc4ccccc34)CC2)cc1C | active: -6% |
| CCS(=O)(=O)NCCc1sc2nc(-c3ccc(OC)cc3)nn2c1C | inactive: 71% |
| CCOC(=O)Cc1nn(CC)c(=O)c2ccccc12 | inactive: 115% |
| O=C(CNS(=O)(=O)c1ccc(Br)s1)N1CCN(c2ccc(F)cc2)CC1 | inactive: 67% |
| COc1cccc(NC(=O)CN2C=NS(=O)(=O)c3ccccc32)c1 | inactive: 127% |
| Cc1ccc(C(=O)c2sc(Nc3ccc(F)cc3)c(C#N)c2N)cc1 | inactive: 108% |
| COc1cccc(-c2nc3c(c(SCC(=O)Nc4cccc(C)c4C)n2)Cc2c(CO)cnc(C)c2O3)c1 | inactive: 113% |
| Cc1cccc(CCn2c(=O)c3ccccc3n(Cc3ccccc3C)c2=O)c1 | inactive: 59% |
| Cc1cccn2c(=O)cc(COc3ccc(NC(=O)COc4ccc(F)cc4)cc3)nc12 | inactive: 69% |
| COc1ccc2c(c1)c1c(c(=O)n(Cc3ccccc3)c(=O)n1CC(=O)Nc1ccccc1F)n2C | inactive: 129% |
| CCOc1ccccc1NC(=O)N1CC(C)Oc2ccc(Cl)cc21 (stereo not drawn) | inactive: 99% |
| CCOC(=O)c1cnc(NCc2ccc(OC)cc2OC)c2ccccc12 | inactive: 117% |
| Cc1ccc(OC(=O)CSc2nnc(-c3ccc4c(c3)OCO4)o2)c(C)c1 | inactive: 83% |

| SMILES | survival |
| --- | --- |
| COc1ccc(-c2nc3sc(CCNC(=O)C(C)(C)C)c(C)n3n2)cc1 | inactive: 80% |
| NC(=O)c1cc(N)ccc1N1CCCC1 | inactive: 104% |
| CCOCCCNC(=O)c1ccc(-c2nc(CS(=O)(=O)c3ccccc3)c(C)o2)cc1 | inactive: 87% |
| CNC(=O)C1CCCN(c2nnc(C)c3c(C)n(-c4ccccc4)nc23)C1 (stereo not drawn) | inactive: 72% |
| CC1CCC2(CC1)Nc1ccccc1S2 (stereo not drawn) | inactive: 110% |
| O=C(O)CCc1ccc(-c2ccc(Br)cc2)n1-c1ccccc1O | inactive: 50% |
| CCOC(=O)C1CCN(c2cc3c(cc2NC(=O)c2ccccc2Cl)n(C)c(=O)n3C)CC1 | inactive: 82% |
| CCOc1ccc(N2CC(c3nc4ccccc4n3CCOc3ccc(OC)cc3)CC2=O)cc1 (stereo not drawn) | inactive: 75% |
| CC(C)Cc1nn2cc(-c3cccc(Br)c3)nc2s1 | inactive: 115% |
| CCOc1ccc2nc(N3CCCC(C(=O)NCCc4ccc(OC)cc4OC)C3)sc2c1 (stereo not drawn) | inactive: 71% |
| CCCCN(CC)CCNC(=O)Cn1cnc2sc(C)c(S(=O)(=O)N3CCN(c4ccccc4OC)CC3)c2c1=O | inactive: 75% |
| CCOc1cccc2sc(N(Cc3cccnc3)C(C)=O)nc12 | inactive: 80% |
| O=C(Nc1ccc(F)c(Cl)c1)c1cc(S(=O)(=O)NCc2ccc3c(c2)OCO3)ccc1F | inactive: 124% |
| Cc1cc2nc(-c3ccc(NC(=O)c4ccc(OCC(C)C)cc4)cc3)oc2cc1C | inactive: 78% |
| O=C(NCCc1ccccc1)c1ccc(CSc2nc3cccnc3n2Cc2ccccc2)cc1 | inactive: 75% |
| CC(NC(=O)CCc1cn(Cc2ccccc2Cl)c2ccccc12)c1ccccc1 (stereo not drawn) | inactive: 89% |
| CC(C)CN(c1ccccc1)S(=O)(=O)c1nnc(NC(=O)C2CCCCC2)s1 | inactive: 91% |
| O=C(NCCO)C(=O)NCC(c1ccc2c(c1)OCO2)N1CCOCC1 (stereo not drawn) | inactive: 59% |
